# Some of the results follow.
# Biological target: no compound (DMSO)
# Experiment: log2 fold change of degron read counts, EGFP-low vs EGFP+ sorted cells; higher = lower degron-EGFP level without compound (poor expression or instability)
# Conditions: compound: DMSO control; 18 h
# 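Also: jurkat cells carrying a lentiviral library of mutant zinc finger degrons fused to EGFP plus mCherry, mCherry+ cells FACS sorted, degron abundance counted by next-generation sequencing.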
row,Sequence,log2 fold change of degron read counts
1,FDCPVCGARFTQKGNLLRHIKL,-0.57
2,FKCPICGAWFTQKGNLLRHIKL,0.468
3,FDCDQCGARFTQKGNLLRHIKL,-1.35
4,LLCNQCGFSCTQKGNLLRHIKL,0.194
5,FTCEQCGAKFTQKGNLLRHIKL,-2.87
6,FKCNQCGRDFTQKGNLLRHIKL,-1.59
7,FFCDQCGAPFTQKGNLLRHIKL,-0.74
8,FTCDICGACFTQKGNLLRHIKL,-1.02
9,FSCPICGRCFTQKGNLLRHIKL,-0.435
10,FACEICGRLFTQKGNLLRHIKL,-0.6
11,LGCEICGFCCTQKGNLLRHIKL,0.723
12,FECEVCGAVFTQKGNLLRHIKL,-1.01
13,FACNQCGRPFTQKGNLLRHIKL,0.0242
14,FACNICGACFTQKGNLLRHIKL,-0.206
15,FFCSVCGHQFTQKGNLLRHIKL,0.373
16,LVCEICGFWCTQKGNLLRHIKL,0.344
17,FGCEICGHGFTQKGNLLRHIKL,-0.451
18,FDCPICGRSFTQKGNLLRHIKL,-0.996
19,LHCEICGFLCTQKGNLLRHIKL,1.02
20,FDCNVCGACFTQKGNLLRHIKL,-0.568
21,FICNICGAWFTQKGNLLRHIKL,0.0784
22,FACDVCGADFTQKGNLLRHIKL,-1.38
23,FDCDQCGASFTQKGNLLRHIKL,-3.58
24,FDCNVCGAYFTQKGNLLRHIKL,0.718
25,FFCEVCGASFTQKGNLLRHIKL,-1.31

row,Sequence,log2 fold change of degron read counts
1,FLCNVCGAFFTQKGNLLRHIKL,0.411
2,FSCPICGRLFTQKGNLLRHIKL,-0.455
3,FRCNQCGAWFTQKGNLLRHIKL,0.689
4,FWCNQCGARFTQKGNLLRHIKL,0.3
5,FQCNICGAEFTQKGNLLRHIKL,-1.23
6,FNCNVCGANFTQKGNLLRHIKL,-1.42
7,FTCPICGRRFTQKGNLLRHIKL,-0.753
8,FVCEQCGAKFTQKGNLLRHIKL,-1.47
9,FWCPVCGAIFTQKGNLLRHIKL,1.39
10,FCCNQCGRDFTQKGNLLRHIKL,-0.0854
11,LCCEICGFLCTQKGNLLRHIKL,0.186
12,FTCDQCGAQFTQKGNLLRHIKL,-0.908
13,FVCEVCGAVFTQKGNLLRHIKL,-1.21
14,FNCSVCGHKFTQKGNLLRHIKL,-0.505
15,FECNQCGHCFTQKGNLLRHIKL,-0.197
16,FGCPICGHWFTQKGNLLRHIKL,0.686
17,FKCNVCGASFTQKGNLLRHIKL,-1.47
18,FCCPICGRLFTQKGNLLRHIKL,0.239
19,FKCDVCGAEFTQKGNLLRHIKL,-3.38
20,FACEICGRHFTQKGNLLRHIKL,-0.856
21,LNCNQCGFCCTQKGNLLRHIKL,0.209
22,FTCEICGHPFTQKGNLLRHIKL,-0.883
23,FMCDQCGAGFTQKGNLLRHIKL,-2.02
24,FECEQCGAKFTQKGNLLRHIKL,-1.54
25,FQCEICGRMFTQKGNLLRHIKL,-2.01

# From the supplement of paper PMC12645437, “Orthogonal IMiD-Degron Pairs Induce Selective Protein Degradation in Cells” (ACS Chemical Biology, 2025)
